Reference: PubChem BioAssay AID1963576 (National Center for Advancing Translational Sciences (NCATS), 2024)
Out of some 46,000 compounds screened, about 60 (0.1%) were called active. Inconclusive results (about 3%) are left out. Calls come from the whole dose curve; as a rule, active = well fitted inhibition curve with a large enough effect; inconclusive = small, poorly fitted or top-dose-only effect; inactive = no such curve, though single readings can be large or run the other way. The list shows a part of the results.

Experiment: Primary qHTS assay for Inhibitors of ovarian cancer metastasis using an organotypic tumor microenvironment (TME) model.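 For activity change, negative = inhibition: plate controls were DMSO wells for no effect and tomatine positive control wells for full effect.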 Note: nearly all actives have a fitted effect of over 65% in size.
Conditions: SKOV3ip1-GFP adhesion/invasion on 3D omental model, fluorescence; series mostly up to 45.8 µM; activity change, negative = inhibition: at the top concentration
Summary of the method: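 qHTS, 4-pt dose (0.36-46 umol/L); SKOV3ip1-GFP, 1,200 cells/well, no FBS; primary omental fibroblast/mesothelial co-culture 48 h pre-grown; 2 h RT + 16 h 37 C; PBS wash, 4% PFA; GFP count 488/509 nm.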

Row | SMILES | activity change, negative = inhibition | outcome
1 | CN(C(=O)CCNC(=O)Cn1cnc2ccccc2c1=O)c1ccccc1F | inactive: 0.94% | 
2 | COc1cc(CCc2cc(NC(=O)c3ccc(N4C[C@@H](C)N[C@@H](C)C4)cc3)n[nH]2)cc(OC)c1 | inactive: -14.2% | 
3 | NC(=O)c1cc(S(=O)(=O)NCc2ccccc2)cs1 | inactive: 6.64% | 
4 | COc1cccc(-c2nc3c(c(SCc4ccccc4)n2)Cc2c(CO)cnc(C)c2O3)c1 | inactive: -0.445% | 
5 | CN(C)CC=CC(=O)Nc1cc2c(Nc3ccc(F)c(Cl)c3)ncnc2cc1O[C@H]1CCOC1 | inactive: -7.82% | 
6 | C=Cc1ccc(CSc2nc(-c3ccc(OC)cc3)nc3c2Cc2c(CO)cnc(C)c2O3)cc1 | inactive: -7.07% | 
7 | CC(C)Cc1nn2c(=O)cc(COC(=O)c3cccc(NC(=O)CCc4ccccc4)c3)nc2s1 | inactive: -2.38% | 
8 | Cc1ccc2ccc(C(Nc3ccccn3)c3ccccc3)c(O)c2n1 (configuration not stated) |  | inactive
9 | COC(=O)CN1C(=O)CSc2ccc(S(=O)(=O)Nc3ccc(Cl)cc3C)cc21 | inactive: 8.85% | 
10 | CCOC(=O)CSc1nc2cc3c(cc2c(=O)n1CCCC(=O)NCc1ccc2c(c1)OCO2)OCO3 | inactive: -3.12% | 
11 | CCCOc1ccccc1C(=O)N1CCC(c2nc3ccccc3s2)CC1 | inactive: -1.61% | 
12 | Cc1cc(OCCCS(C)(=O)=O)cc(C)c1-c1cccc(COc2ccc3c(c2)OC[C@H]3CC(=O)O)c1 | inactive: -9.14% | 
13 | COc1ccc(C(=O)CN2C(=O)N(c3cc(C)cc(C)c3)S(=O)(=O)c3ccccc32)cc1 | inactive: 1.97% | 
14 | Clc1ccc(CCNc2ncnc3c2c(-c2ccccc2)cn3-c2ccccc2)cc1 | inactive: 4.25% | 
15 | NCCc1nnc(SCc2ccc(Cl)cc2)o1 | inactive: -24.1% | 
16 | COc1ccccc1C(=O)Nc1nc2ccc(S(=O)(=O)N3CCCC3)cc2s1 | inactive: -3.36% | 
17 | CCOC(=O)c1ccc(Nc2c(-c3ccc(O)cc3)nc3nc[nH]n23)cc1 | inactive: 12.1% | 
18 | COc1cc(C(=O)Nc2cc(C)ccc2OCc2cc(=O)n3cc(C)sc3n2)cc(OC)c1OC | inactive: -4.92% | 
19 | CCCCC(=O)Nc1cccc(OCc2cc(=O)n3ccccc3n2)c1 | inactive: 5.31% | 
20 | COc1ccccc1CNC(=O)Cn1ncc2c(=O)oc3ccc(C)cc3c21 | inactive: -1.47% | 
21 | Cc1ccc(Nc2c(-c3ccc(C)cc3)nc3cnccn23)cc1 |  | inactive
22 | CCOc1ccc(NC(=O)C(C)Sc2nnc3cc(C)c4ccccc4n23)cc1 (configuration not stated) |  | inactive
23 | Cc1nc2c(-c3ccccc3)c(C)nn2c(C)c1CCC(=O)NCc1cccc(Cl)c1 |  | inactive
24 | CCc1ccccc1NC(=O)c1cc(S(=O)(=O)NCCc2ccc(OC)c(OC)c2)ccc1F | inactive: -1.14% | 
25 | CC(=O)Nc1c(C)nn(-c2ccccc2)c1N1CCC(C(=O)Nc2cc(Cl)ccc2C)CC1 |  | inactive

Row | SMILES | activity change, negative = inhibition | outcome
26 | CC(C)c1ccc(CNCCSc2nnnn2C)cc1 |  | inactive
27 | CCOC(=O)C1CCCN(c2ncnc3c2cnn3-c2ccc(C)c(Cl)c2)C1 (configuration not stated) | inactive: 3.76% | 
28 | CCOC(=O)c1ccc(NC(=O)c2oc3ccc4c(c3c2C)C(=O)CC(C)(CC)O4)cc1 (configuration not stated) | inactive: -3.58% | 
29 | Cn1c(=O)c2c(SCC(=O)NCc3ccco3)nc(-c3ccccc3Cl)nc2n(C)c1=O | inactive: 4.46% | 
30 | Cc1ccc(NC(=O)CSc2nc3c(c(=O)[nH]2)CN(Cc2ccc4c(c2)OCO4)CC3)cc1C | inactive: 10.9% | 
31 | Cc1cccc(NC(=O)C(=O)NCC(c2cccnc2)N2CCOCC2)c1 (configuration not stated) | inactive: -6.25% | 
32 | CCCOc1ccc(C2c3c(-c4ccccc4O)n[nH]c3C(=O)N2Cc2ccncc2)cc1OCC (configuration not stated) | inactive: 3.96% | 
33 | COc1ccc(-c2noc(C3CC(=O)N(c4cc(C)cc(C)c4)C3)n2)cc1 (configuration not stated) | inactive: 4.28% | 
34 | O=C(Cc1ccc(F)cc1)N1CCC(c2nc3c(nnn3Cc3ccc(Cl)cc3)c(=O)[nH]2)CC1 | inactive: 11.9% | 
35 | COc1ccc(/C=C/c2nc(C#N)c(N3CCN(c4ccccc4)CC3)o2)cc1OC | inactive: 5.98% | 
36 | CN(C(=O)CSc1cn(CC(=O)N2CCCCC2)c2ccccc12)c1ccccc1 | inactive: -8.59% | 
37 | Cc1ccc(CCNC(=O)C2CCCN(Cc3nc(-c4cccc(Cl)c4)oc3C)C2)cc1 (configuration not stated) | inactive: -43.5% | 
38 | CCc1nn(CC(=O)Nc2cccc(C)c2C)c(=O)c2cc3sccc3n12 | inactive: 8.41% | 
39 | Cc1cccc(CNC(=O)c2cnc3sc(N4CCCCC4)nn3c2=O)c1 | inactive: -4.82% | 
40 | CCOC(=O)c1c(C)c(C(=O)NCCc2ccc(OC)cc2)c(C)n1C |  | inactive
41 | CC1=C(C(=O)Nc2ccc(Cl)cc2)C(C(C)C)n2nc(SCc3cccc(C)c3)nc2N1 (configuration not stated) | inactive: 9.49% | 
42 | CCC(Oc1ccccc1)C(=O)Nc1ccccc1OCc1cc(=O)n2ccccc2n1 (configuration not stated) |  | inactive
43 | CCC(C)NC(=O)c1ccc2c(c1)N(Cc1ccccc1)C(=O)c1ccccc1S2(=O)=O (configuration not stated) |  | inactive
44 | CN1CCN(CCCNC(=O)c2cnn(-c3ccccc3)c2C2CCN(C(=O)OC(C)(C)C)CC2)CC1 |  | inactive
45 | Cc1ccc(NC(=O)CSc2nc3ccccc3c3nc(CCn4c(C)nc5ccccc54)nn23)cc1F | inactive: -1.64% | 
46 | Cc1c(Cl)cccc1NC(=O)CCS(=O)(=O)c1ccc(Br)s1 | inactive: 7.52% | 
47 | NC(=O)c1cc(S(=O)(=O)NCC2CCC(C(=O)Nc3cccc(Cl)c3)CC2)cs1 (configuration not stated) | inactive: -9.84% | 
48 | CC(C)(C)C1CCc2onc(C(=O)Nc3sc4c(c3C(N)=O)CCCC4)c2C1 (configuration not stated) | inactive: -2.3% | 
49 | CCOC(=O)c1cc(-c2ccccc2)n(CCCC(=O)Nc2ccc(CC)cc2)c1C | inactive: -28.2% | 
50 | O=C(c1ccc2c(Cl)c3c(nc2c1)CCCC3)N1CCN(c2ccccc2)CC1 | inactive: 2.46% | 

Row | SMILES | activity change, negative = inhibition | outcome
51 | Cc1c2cnn(-c3ccccc3)c(=O)c2c(C)n1CCCC(=O)Nc1ccc(F)cc1F | inactive: -2.46% | 
52 | CCOc1ccccc1NS(=O)(=O)c1c(-c2ccc(C)cc2)csc1C(=O)OC | inactive: -5.02% | 
53 | Cn1c(=O)n(C)c2cc(S(=O)(=O)Nc3ccccc3C(=O)O)ccc21 | inactive: 5.05% | 
54 | Fc1ccc(CNc2ncnc3c2c(-c2ccccc2)cn3-c2ccccc2)cc1 |  | inactive
55 | CCOC(=O)c1cc(-c2ccccc2)n(CC(=O)NCc2ccccc2OC)c1C | inactive: -7.04% | 
56 | CN(C(=O)CSc1nnc2[nH]c(=O)cc(-c3ccccc3)n12)c1ccccc1 | inactive: -7.19% | 
57 | Cc1ccc(C)c(NC(=O)CCNS(=O)(=O)c2ccc3c(c2)CCCC(=O)N3)c1 |  | inactive
58 | COCCNC(=O)c1ccc2c(c1)N(Cc1cccc(Cl)c1)C(=O)c1ccccc1S2=O (configuration not stated) | inactive: 1.16% | 
59 | Cc1ccc(C)c(N2CCN(C(=O)CN3C(=O)CSc4c3c(C)nn4-c3ccccc3)CC2)c1 |  | inactive
60 | O=C(Nc1ccc(F)c(F)c1)C1CCCN(S(=O)(=O)c2cccc3nonc23)C1 (configuration not stated) | inactive: 1.19% | 
61 | Cn1cc(C[C@@H](N)C(=O)O)c2ccccc21 | inactive: 6.13% [at 23.2 µM] | 
62 | CCC(Sc1nncn2c1cc1sccc12)C(=O)Nc1cccc(OC)c1 (configuration not stated) |  | inactive
63 | Cc1cccc(NC(=O)C2CCCN(S(=O)(=O)c3c(C)noc3/C=C/N(C)C)C2)c1C (configuration not stated) | inactive: 0.735% | 
64 | COc1ccc(C(=O)CCC(=O)Nc2ccccc2C)cc1 | inactive: 3.67% | 
65 | COc1ccccc1NC(=O)CSCc1cc(=O)c2c(C)cc(C)cc2[nH]1 | inactive: -9.84% | 
66 | Cc1cc(C)c2c(=O)cc(CSCC(=O)Nc3nnc(C)s3)[nH]c2c1 | inactive: -1.76% | 
67 | CCCNC(=O)Nc1cc(C(=O)NCc2cccc(OCC)c2)ccc1N1CCCC1 | inactive: 13% | 
68 | COc1ccc(N(C)C(=O)NCc2noc3ccc(C)cc23)c(OC)c1 | inactive: -0.616% | 
69 | CCC(=O)N1CCc2cc(Br)cc(S(=O)(=O)CCC(=O)Nc3ccccc3C)c21 | inactive: 4.75% | 
70 | CCOC(=O)CC(NC(=O)Cn1nnc(-c2ccccc2C)n1)c1ccc(OC)cc1 (configuration not stated) |  | inactive
71 | Cc1cc2nc3c(=O)n(C)c(=O)n(C)c3nc2cc1N=CN(C)C | inactive: 2.76% | 
72 | CC(C)(C)c1ccc(C(=O)Nc2ccccc2C(=O)OCc2cc(=O)n3ccsc3n2)cc1 | inactive: 0.221% | 
73 | Cc1ccc(CN2CCN(C3CCN(C(=O)OC(C)(C)C)CC3)C(=O)C2=O)cc1 | inactive: 2.67% | 
74 | Cc1ccc2occ(CC(=O)Nc3ccc(S(N)(=O)=O)cc3)c2c1 | inactive: -7.02% | 
75 | COc1ccc(NC(=O)CCc2c(C)nn(-c3ccc(N4CCOCC4)nn3)c2C)cc1Cl | inactive: 6.56% | 

Row | SMILES | activity change, negative = inhibition | outcome
76 | COc1ccc(-c2nc(SCC(=O)NCCCc3ccccc3)n[nH]2)cc1 | inactive: 9.47% | 
77 | Cc1cc(OCC(=O)Nc2sc3c(c2C(N)=O)CCCC3)ccc1C(C)C | inactive: 4.65% | 
78 | CCc1ccc(C(=O)c2cn(CC(=O)Nc3ccc(F)cc3)c3cc4c(cc3c2=O)OCO4)cc1 |  | inactive
79 | COc1ccc(NC(=O)Cn2c(C)c3cnn(-c4ccccc4)c(=O)c3c2C)c(OC)c1 |  | inactive
80 | Cc1ccc(N(CC(=O)NC(C)c2ccccc2)S(=O)(=O)c2c(C)noc2C)cc1 (configuration not stated) | inactive: 3.56% | 
81 | Cc1cccc(-c2noc(C3CC(=O)N(c4ccc5c(c4)OCCO5)C3)n2)c1 (configuration not stated) |  | inactive
82 | Cc1ccc(NC(=O)c2cc(S(=O)(=O)N3CCOCC3)c(Cl)cc2Cl)cc1 | inactive: -2.94% | 
83 | Cc1ccc(NC(=O)N2CCC(n3c(C)nc4cccnc43)CC2)c(Cl)c1 | inactive: -5.8% | 
84 | Clc1ccccc1-c1nc(Nc2ccccc2)nc2ccc(Br)cc12 |  | inactive
85 | CCOc1ccc(NC(=O)CSc2ncc3c(n2)-c2ccccc2N(C)S3(=O)=O)cc1 | inactive: 1.69% | 
86 | COCCNC(=O)CCC(=O)NNc1nc2ccccc2c2nc(-c3ccccc3)nn12 | inactive: -1.23% | 
87 | CCC(Oc1ccccc1)C(=O)Nc1nnc(S(=O)(=O)Nc2ccccc2)s1 (configuration not stated) | inactive: -3.05% | 
88 | CCc1ccc(CNC(=O)c2ccc(CSc3nc4ccncc4n3Cc3ccccc3)cc2)cc1 | inactive: -4.06% | 
89 | CCCCC(CC)COC(=O)C(C#N)=C(c1ccccc1)c1ccccc1 (configuration not stated) | inactive: 25.1% | 
90 | Nc1c2c(nc3ccccc13)CCCC2 | inactive: -7.93% | 
91 | Cc1cc(C)cc(NC(=O)C2CCN(S(=O)(=O)c3cccc4nonc34)CC2)c1 | inactive: -0.275% | 
92 | COc1ccc(CNC(=O)Nc2cn(CC(C)C)c(=O)c3ccccc23)c(OC)c1 | inactive: -10.7% | 
93 | Cc1noc(-c2ccccc2OCC(=O)Nc2cccc([N+](=O)[O-])c2)n1 | inactive: -0.114% | 
94 | CC(=O)c1ccc(N2CCN(C(=O)NCc3noc4ccc(C)cc34)CC2)cc1 | inactive: 14.2% | 
95 | Cc1ccccc1NC(=O)CC1C(=O)NCCN1C(=O)c1cccc(Cl)c1 (configuration not stated) |  | inactive
96 | COC(=O)CCc1sc(Nc2ccc(OC)cc2)nc1-c1ccc(OC)cc1 | inactive: 0.737% | 
97 | COc1ccc(N2CCN(C(=O)CCS(=O)(=O)c3cc4c(cc3Cl)NC(=O)CO4)CC2)cc1 | inactive: 1.02% | 
